# Reference: the supplement of paper PMC3334620
# Over roughly 33,000 sequences, “E-score (-0.5 to 0.5)” has its median near -0.016; the highest 2% begin near 0.32. This is one part of the list.
# Target: T1, Stp1 (UniProt B3LFK1)
# T1 sequence: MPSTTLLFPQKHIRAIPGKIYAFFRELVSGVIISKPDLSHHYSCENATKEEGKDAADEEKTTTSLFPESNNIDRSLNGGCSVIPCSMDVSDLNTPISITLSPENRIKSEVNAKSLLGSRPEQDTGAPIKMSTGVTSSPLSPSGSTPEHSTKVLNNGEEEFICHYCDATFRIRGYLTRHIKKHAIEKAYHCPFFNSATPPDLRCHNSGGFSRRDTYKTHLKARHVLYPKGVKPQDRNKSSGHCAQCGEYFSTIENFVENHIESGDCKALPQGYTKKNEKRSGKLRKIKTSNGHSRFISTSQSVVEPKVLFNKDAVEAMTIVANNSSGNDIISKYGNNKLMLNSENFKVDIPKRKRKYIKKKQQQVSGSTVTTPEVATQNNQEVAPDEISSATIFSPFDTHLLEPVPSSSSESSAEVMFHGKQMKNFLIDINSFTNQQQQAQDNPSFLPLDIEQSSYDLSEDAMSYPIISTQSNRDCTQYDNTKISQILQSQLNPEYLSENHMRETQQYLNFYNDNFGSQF
# Experiment: PBM E-score (8-mer binding enrichment) (E-score (-0.5 to 0.5)); higher = stronger / more preferred TF binding; most listed sequences are background and not binding sites
# Details: protein concentration: 200 nM; construct: GST-full length
# Outline: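 Yeast transcription factors carrying a GST tag, as full-length proteins or DNA-binding domains, were produced by PURExpress in vitro transcription/translation. About 100-200 nM protein was applied to universal all-10-mer Agilent arrays, double-stranded by primer extension on fresh or once-stripped slides. Bound protein was detected with fluorescent anti-GST, and scans were normalised with masliner. The Universal PBM Analysis Suite gave each ungapped eight-base word, pooled with its reverse complement, an E-score, a modified Wilcoxon-Mann-Whitney statistic.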
row,Sequence,PBM E-score
1,ATGTAATG,0.153
2,AACAGGCC,-0.187
3,CCAAACCC,-0.244
4,CAAGCCTC,-0.34
5,TTCAGAAA,0.0116
6,GGAGCAAA,-0.209
7,CGGGGCGC,0.163
8,ACGGCGGG,0.289
9,CGACCGCC,-0.0226
10,TAAAATCA,0.131
11,CACGGAGA,0.2
12,AACATGTT,-0.00786
13,CTCCAGGA,-0.251
14,GCCGATAA,0.137
15,CGGGCACA,-0.106
16,AGTACTTG,0.142
17,CGATCAGA,-0.053
18,CGAATATA,0.0736
19,ACCTCAAT,-0.128
20,AAGTTTCG,0.0786
21,AAGTGATA,-0.137
22,TAATTGGA,0.0604
23,AGAAACCG,-0.0245
24,GTCTGATA,-0.0359
25,GCAGGGGC,-0.145

row,Sequence,PBM E-score
1,CGGATAAA,0.223
2,CCCGACTA,-0.226
3,CAGCGCAC,-0.0825
4,ATTGCCGG,-0.104
5,AGGCTCGG,-0.136
6,TATTGGAA,-0.0198
7,ACTTTACA,-0.00342
8,CGCTCTAC,-0.0216
9,CTAAGGGC,-0.224
10,CGGCGGAG,0.214
11,GCAATTTA,0.185
12,AGAGTGCC,-0.0276
13,ATAATCAA,0.193
14,ATTTGACA,0.163
15,CCATCCGA,-0.146
16,AAACGCAT,-0.227
17,TATGATAA,0.183
18,TCGGGAAA,0.0247
19,GTCTAATA,-0.0272
20,ATGCGGCA,0.467
21,CTCGACGA,-0.13
22,CCTGCTCG,-0.19
23,GCCAATCC,0.0101
24,CTCAGGGA,-0.305
25,GATCGCTA,-0.256

row,Sequence,PBM E-score
1,GCACTGGA,-0.119
2,AAAGTAGA,-0.0863
3,AGACTCCC,-0.302
4,TGCCTCAA,-0.019
5,AAGGCTCG,-0.0294
6,CCCTTCGG,-0.0178
7,ACCGCGGC,0.384
8,CAACCTGC,-0.109
9,ACTACCGC,0.101
10,CGCCGGCC,0.0744
11,ACGCTTCG,-0.0864
12,ATCTAGGC,-0.0831
13,TCACGAAA,0.26
14,AGACTCCT,-0.19
15,CACTCCAC,-0.0378
16,GCAGTAGA,-0.0574
17,AAGCAAAG,-0.0154
18,AGATGCCC,0.06
19,CTGTGTCA,0.0251
20,CGTCTTTC,0.0661
21,CGCTTATA,0.171
22,ACTTTCTG,0.0182
23,CGACGAAC,0.00416
24,AGGTGGTA,-0.0803
25,ACGACCCT,-0.281

row,Sequence,PBM E-score
1,CACCTCTG,-0.245
2,CTCTCCAC,-0.267
3,AATCCAAC,-0.107
4,ACGTTTCT,-0.15
5,GCGAATGA,0.281
6,CCTATTAC,-0.0831
7,CGCGATCA,0.0494
8,ATTGCCTC,0.218
9,CGATTGTA,0.108
10,CAAGGGTA,-0.257
11,TGCACCAA,-0.0793
12,AACGTTGA,-0.00192
13,TATGTTCA,0.0669
14,AGGCTGCC,-0.0437
15,CATACACC,-0.0591
16,AACACACG,0.118
17,GCAAGGCA,0.38
18,AGAGTTGC,0.0899
19,ACGTGGCT,0.0706
20,GGAAACAC,0.147
21,CGGAGAGC,-0.0882
22,AGCTAAAT,-0.0323
23,ATATGGCC,-0.00502
24,GAAAACTA,0.00141
25,CTCGATTA,0.12

row,Sequence,PBM E-score
1,CGGGCGTC,-0.182
2,ACATTGTA,0.0692
3,CACAGGCG,0.0731
4,AAGCCAAT,-0.0635
5,TAACAAAA,0.212
6,TCGTTGCA,-0.0803
7,GGCCACAC,0.0354
8,GCAGATGC,0.0938
9,AATGCTTG,-0.141
10,TTGCTAAA,-0.0568
11,GTCCGCCA,-0.128
12,AAACGTGA,-0.0114
13,AGCAGTTG,-0.0998
14,GCTCCCAA,-0.0914
15,ACTGGTAA,0.0824
16,GCCGCAGA,0.372
17,CATTTCAG,-0.0364
18,GCTCGCCA,-0.0796
19,GTCTGCGA,-0.0312
20,AGATGATC,-0.0784
21,AGTCGTCG,-0.233
22,CGTCATTC,0.027
23,TGCAAGCA,-0.0579
24,CTAAGTGC,0.0783
25,CCATAGGG,-0.0433

row,Sequence,PBM E-score
1,CGTGAAAG,0.0861
2,ACTGCCCA,-0.0833
3,ACCAGCTA,-0.0313
4,ATTATCCC,-0.172
5,ATGCGCAA,0.0361
6,AGTAGGCC,-0.0697
7,AACTGGTC,-0.143
8,GCCGCGTA,0.465
9,AGAGGGTG,-0.242
10,CAGGCAGA,-0.0212
11,GTAGCTAA,-0.0438
12,CTAGCGGC,0.073
13,CATGCTCA,-0.172
14,AGCCTTCG,-0.162
15,CATGCCTC,0.264
16,ATCGTGGA,-0.044
17,GAAGCGAC,-0.0463
18,AAGCCTAT,0.0334
19,CGAGGATA,-0.12
20,GGTTATAA,-0.0452
21,CAACCACG,0.0433
22,CTGCAGGC,-0.372
23,GCTAAACA,0.0697
24,CTATGCCA,-0.028
25,AAAGGCGT,0.192

row,Sequence,PBM E-score
1,AACCAAGG,0.138
2,GCCTCAAA,0.00655
3,CTGGAGCC,-0.0112
4,AATGGGGT,-0.0681
5,ATCCTAGG,-0.101
6,CCTACAGA,-0.103
7,ACCCCGGT,-0.338
8,CTTAAGGC,0.162
9,ATCGCTTC,0.00562
10,GCAAACCA,0.115
11,CGAGCACG,0.0219
12,AGCGAGAT,0.0004
13,GGTTAAAC,0.0174
14,CGTAGTTC,0.0178
15,ATTTGGGC,-0.203
16,GCCGAGGC,0.357
17,ATCTAGGG,-0.15
18,TCCAACCA,-0.133
19,ATCGTGCC,0.281
20,GACGTCTC,-0.169
21,GAGTGAAA,0.0471
22,AGCACACC,-0.23
